Data from patent US7423058B2, “Inhibitors of hepatitis C virus NS3 protease” (Schering Corporation, priority 2004, dated 2008).

target: Recombinant heterodimeric HCV NS3/NS4A protease (strain 1a) (Hepatitis C virus genotype 1a, UniProt P27958); experiment: Spectrophotometric assay for HCV protease inhibitory activity (chromogenic ester substrates); format: biochemical; conditions: Table 1: Ketones; read-out: Ki* Range

Compound | pKi
CNC(=O)C(=O)C(CC1CC1)NC(=O)[C@@H]1[C@@H]2[C@H](CN1C(=O)[C@@H](NC(=O)N[C@H](C(=O)c1ccccn1)C(C)C)C(C)(C)C)C2(C)C (some centres unmarked) [compound 4172] | > 7.12
CC(C)[C@H](NC(=O)N[C@H](C(=O)N1C[C@H]2[C@@H]([C@H]1C(=O)NC(CC1CC1)C(=O)C(N)=O)C2(C)C)C1CCCCC1)C(=O)c1ccccc1 (some centres unmarked) [compound 4028] | > 7.12
Cc1csc(C(=O)[C@@H](NC(=O)N[C@H](C(=O)N2C[C@H]3[C@@H]([C@H]2C(=O)NC(CC2CC2)C(=O)C(N)=O)C3(C)C)C(C)(C)C)C(C)C)n1 (some centres unmarked) [compound 4030] | > 7.12
C=CCNC(=O)C(=O)C(CCC)NC(=O)[C@@H]1[C@@H]2[C@H](CN1C(=O)[C@@H](NC(=O)N[C@H](C(=O)C1CC1)C1CCCCC1)C(C)(C)C)C2(C)C (some centres unmarked) [compound 4039] | > 7.12
CCCNC(=O)C(=O)C(CCC(F)(F)F)NC(=O)[C@@H]1[C@@H]2[C@H](CN1C(=O)[C@@H](NC(=O)N[C@H](C(=O)C1CC1)C1CCCCC1)C1CCCCC1)C2(C)C (some centres unmarked) [compound 4206] | < 6.60
CC(C)[C@H](NC(=O)N[C@H](C(=O)N1C[C@H]2[C@@H]([C@H]1C(=O)NC(CC1CCC1)C(=O)C(N)=O)C2(C)C)C(C)(C)C)C(=O)c1ccccn1 (some centres unmarked) [compound 4017] | > 7.12
CC(C)(C)[C@H](NC(=O)NC1(CC(=O)c2ccccc2)CCCCC1)C(=O)N1C[C@H]2[C@@H]([C@H]1C(=O)NC(CC1CCC1)C(=O)C(N)=O)C2(C)C (some centres unmarked) [compound 4126] | > 7.12
CC(C)[C@H](NC(=O)N[C@H](C(=O)N1C[C@H]2[C@@H]([C@H]1C(=O)NC(CC1CC1)C(=O)C(N)=O)C2(C)C)C(C)(C)C)C(=O)c1ccncc1 (some centres unmarked) [compound 4095] | > 7.12
CC(=O)[C@@H](NC(=O)N[C@H](C(=O)N1C[C@H]2[C@@H]([C@H]1C(=O)NC(CC1CC1)C(=O)C(N)=O)C2(C)C)C(C)(C)C)C1CCCCC1 (some centres unmarked) [compound 4081] | > 7.12
CC(C)[C@H](NC(=O)N[C@H](C(=O)N1C[C@H]2[C@@H]([C@H]1C(=O)NC(CC1CC1)C(=O)C(N)=O)C2(C)C)C(C)(C)C)C(=O)c1ccccc1OCc1ccccc1 (some centres unmarked) [compound 4104] | > 7.12
CC(C)[C@H](NC(=O)N[C@H](C(=O)N1C[C@H]2[C@@H]([C@H]1C(=O)NC(CC1CC1)C(=O)C(N)=O)C2(C)C)C(C)(C)C)C(=O)c1ccccc1O (some centres unmarked) [compound 4038] | > 7.12
C=CCNC(=O)C(=O)C(CCC)NC(=O)[C@@H]1[C@@H]2[C@H](CN1C(=O)[C@@H](NC(=O)N[C@H](C(=O)c1ccccc1)C(C)C)C(C)(C)C)C2(C)C (some centres unmarked) [compound 4102] | > 7.12

same assay, conditions: Table 2: Oximes; read-out: Ki* Range

Compound | pKi
CC(C)[C@H](NC(=O)N[C@H](C(=O)N1C[C@H]2[C@@H]([C@H]1C(=O)NC(CC1CC1)C(=O)C(N)=O)C2(C)C)C(C)(C)C)/C(=N\O)C1CC1 (some centres unmarked) [compound 4291] | 6.60 to 7.12

same assay, conditions: Table 3, Esters; read-out: Ki* Range

Compound | pKi
CC(C)(C)OC(=O)[C@H](NC(=O)N[C@H](C(=O)N1C[C@H]2[C@@H]([C@H]1C(=O)NC(CC1CCC1)C(=O)C(N)=O)C2(C)C)C(C)(C)C)C1CCCCC1 (some centres unmarked) [compound 4344] | > 7.12
CC(C)[C@H](NC(=O)N[C@H](C(=O)N1C[C@H]2[C@@H]([C@H]1C(=O)NC(CC1CC1)C(=O)C(N)=O)C2(C)C)C(C)(C)C)C(=O)O[C@H](C)c1ccccc1 (some centres unmarked) [compound 4315] | > 7.12
CC(C)(C)[C@H](NC(=O)NC1(C(=O)OCc2ccccc2)Cc2ccccc2C1)C(=O)N1C[C@H]2[C@@H]([C@H]1C(=O)NC(CC1CCC1)C(=O)C(N)=O)C2(C)C (some centres unmarked) [compound 4654] | < 6.60
CC(C)[C@H](NC(=O)N[C@H](C(=O)N1C[C@H]2[C@@H]([C@H]1C(=O)NC(CC1CC1)C(=O)C(N)=O)C2(C)C)C(C)C)C(=O)OCc1ccccc1 (some centres unmarked) [compound 4534] | > 7.12
C=CCNC(=O)C(=O)C(CCC)NC(=O)[C@@H]1[C@@H]2[C@H](CN1C(=O)[C@@H](NC(=O)N[C@H](C(=O)OC(C)C1CC1)C(C)C)C(C)(C)C)C2(C)C (some centres unmarked) [compound 4459] | > 7.12
CC(C)(C)C[C@H](NC(=O)N[C@H](C(=O)N1C[C@H]2[C@@H]([C@H]1C(=O)NC(CC1CC1(F)F)C(=O)C(N)=O)C2(C)C)C(C)(C)C)C(=O)OCc1ccccc1 (some centres unmarked) [compound 4511] | > 7.12
CC(C)(C)OC(=O)[C@@H](NC(=O)N[C@H](C(=O)N1C[C@@H]2OC(C)(C)C[C@@H]2[C@H]1C(=O)NC(CC1CC1)C(=O)C(N)=O)C1(C)CCCCC1)C(C)(C)C (some centres unmarked) [compound 4472] | > 7.12
CC(C)(C)[C@H](NC(=O)NC1(C(=O)OCc2ccccc2)CCCCC1)C(=O)N1C[C@H]2[C@@H]([C@H]1C(=O)NC(CC1CC1(F)F)C(=O)C(N)=O)C2(C)C (some centres unmarked) [compound 4582] | 6.60 to 7.12
CC1(C)[C@@H]2[C@@H](C(=O)NC(CC3CC3)C(=O)C(N)=O)N(C(=O)[C@@H](NC(=O)N[C@H](C(=O)OCC3CC3)C3(C(F)(F)F)CC3)C3(C(F)(F)F)CC3)C[C@@H]21 (some centres unmarked) [compound 4550] | 6.60 to 7.12
C=CCNC(=O)C(=O)C(CC1CCC1)NC(=O)[C@@H]1[C@@H]2[C@H](CN1C(=O)[C@@H](NC(=O)N[C@H](C(=O)OC(C)(C)C)C(C)C)C(C)(C)C)C2(C)C (some centres unmarked) [compound 4609] | 6.60 to 7.12
C=CCNC(=O)C(=O)C(CC1CC1)NC(=O)[C@@H]1[C@@H]2[C@H](CN1C(=O)[C@@H](NC(=O)N[C@H](C(=O)OC(C)(C)C)C(C)C)C1Cc3ccccc3C1)C2(C)C (some centres unmarked) [compound 4547] | 6.60 to 7.12
CC(C)(C)OC(=O)C1(NC(=O)N[C@H](C(=O)N2C[C@H]3[C@@H]([C@H]2C(=O)NC(CC2CC2)C(=O)C(N)=O)C3(C)C)C(C)(C)C)CCC(=O)CC1 (some centres unmarked) [compound 4648] | < 6.60
C[C@H](NC(=O)C(=O)C(CC1CC1)NC(=O)[C@@H]1[C@@H]2[C@H](CN1C(=O)[C@@H](NC(=O)N[C@H](C(=O)OC(C)(C)C)C(C)(C)C)C(C)(C)C)C2(C)C)c1ccccc1 (some centres unmarked) [compound 4574] | 6.60 to 7.12
C=CCNC(=O)C(=O)C(CCCC)NC(=O)[C@@H]1[C@@H]2[C@H](CN1C(=O)[C@@H](NC(=O)N[C@H](C(=O)OC(C)(C)C)C(C)(C)C)C1Cc3ccccc3C1)C2(C)C (some centres unmarked) [compound 4586] | 6.60 to 7.12
CC(C)[C@H](NC(=O)N[C@H](C(=O)N1C[C@H]2[C@@H]([C@H]1C(=O)NC(CC1CC1)C(=O)C(N)=O)C2(C)C)C(C)(C)C)C(=O)OC(c1ccccc1)C1CC1 (some centres unmarked) [compound 4352] | > 7.12
C[C@@H](OC(=O)[C@@H](NC(=O)N[C@H](C(=O)N1C[C@H]2[C@@H]([C@H]1C(=O)NC(CC1CCC1)C(=O)C(N)=O)C2(C)C)C(C)(C)C)C(C)(C)C)c1ccccc1 (some centres unmarked) [compound 4425] | > 7.12
CC(C)(C)OC(=O)[C@@H](NC(=O)N[C@H](C(=O)N1C[C@H]2[C@@H]([C@H]1C(=O)NC(CC1CCC1)C(=O)C(N)=O)C2(C)C)C(C)(C)C)C1CCCC1 (some centres unmarked) [compound 4317] | > 7.12
CC(C)(C)[C@H](NC(=O)N[C@@H](C(=O)OCc1ccccc1)c1ccccc1)C(=O)N1C[C@H]2[C@@H]([C@H]1C(=O)NC(CC1CCC1)C(=O)C(N)=O)C2(C)C (some centres unmarked) [compound 4496] | > 7.12
CC(C)(C)[C@H](NC(=O)N[C@H](C(=O)OCC1CC1)C1(C(F)(F)F)CC1)C(=O)N1C[C@H]2[C@@H]([C@H]1C(=O)NC(CC1CC1)C(=O)C(N)=O)C2(C)C (some centres unmarked) [compound 4349] | > 7.12
CC(C)(C)OC(=O)[C@H](NC(=O)N[C@H](C(=O)N1C[C@H](Cl)C[C@H]1C(=O)NC(CC1CC1)C(=O)C(N)=O)C(C)(C)C)C(C)(C)C (some centres unmarked) [compound 4566] | 6.60 to 7.12
C=CCNC(=O)C(=O)C(CCCC)NC(=O)[C@@H]1[C@@H]2[C@H](CN1C(=O)[C@@H](NC(=O)N[C@H](C(=O)OC(C)(C)C)C(C)(C)C)C(C)(C)C)C2(C)C (some centres unmarked) [compound 4483] | > 7.12
CC(C)OC(=O)[C@@H](NC(=O)N[C@H](C(=O)N1C[C@H]2[C@@H]([C@H]1C(=O)NC(CC1CC1)C(=O)C(N)=O)C2(C)C)C(C)(C)C)C(C)C (some centres unmarked) [compound 4327] | > 7.12
C=CCNC(=O)C(=O)C(CCC(F)(F)F)NC(=O)[C@@H]1[C@@H]2[C@H](CN1C(=O)[C@@H](NC(=O)N[C@H](C(=O)OCc1ccccc1)C1CCCC1)C(C)(C)C)C2(C)C (some centres unmarked) [compound 4498] | > 7.12
COC(=O)C1(NC(=O)N[C@H](C(=O)N2C[C@H]3[C@@H]([C@H]2C(=O)NC(CC2CC2)C(=O)C(N)=O)C3(C)C)C(C)(C)C)CCCCC1 (some centres unmarked) [compound 4410] | > 7.12
CC(C)[C@H](NC(=O)N[C@H](C(=O)N1CC2(C[C@H]1C(=O)NC(CC1CC1)C(=O)C(N)=O)SCCS2)C(C)(C)C)C(=O)OCC1CC1 (some centres unmarked) [compound 4555] | 6.60 to 7.12

same assay, conditions: Table 6; read-out: Ki* range

Compound | pKi
C=CCNC(=O)C(=O)C(CC1CC1)NC(=O)[C@@H]1[C@@H]2[C@H](CN1C(=O)[C@@H](NC(=O)NC1(Cc3nccs3)CCCCC1)C(C)(C)C)C2(C)C (some centres unmarked) [compound 4968] | 6.60 to 7.12
C#CCCC(NC(=O)[C@@H]1[C@@H]2[C@H](CN1C(=O)[C@@H](NC(=O)NC1(Cc3ccccc3)CCCCC1)C(C)(C)C)C2(C)C)C(=O)C(=O)NCC=C (some centres unmarked) [compound 4930] | > 7.12
CC(C)(C)[C@H](NC(=O)NC1(Cc2cccc(OCc3ccccc3)c2)CCCCC1)C(=O)N1C[C@H]2[C@@H]([C@H]1C(=O)NC(CC1CC1)C(=O)C(N)=O)C21CC1 (some centres unmarked) [compound 4970] | 6.60 to 7.12
C#CCCC(NC(=O)[C@@H]1[C@@H]2[C@H](CN1C(=O)[C@@H](NC(=O)NC1(Cc3ccccc3)CCCCC1)C(C)(C)C)C2(C)C)C(=O)C(N)=O (some centres unmarked) [compound 4936] | > 7.12
C=C(c1ccccc1)[C@@H](NC(=O)N[C@H](C(=O)N1C[C@H]2[C@@H]([C@H]1C(=O)NC(CC1CC1)C(=O)C(N)=O)C2(C)C)C(C)(C)C)C(C)C (some centres unmarked) [compound 4950] | > 7.12
CC(C)(C)[C@H](NC(=O)NC1(Cc2ccccn2)CCCCC1)C(=O)N1C[C@H]2[C@@H]([C@H]1C(=O)NC(CC1CCC1)C(=O)C(N)=O)C2(C)C (some centres unmarked) [compound 4939] | > 7.12
CC1(C)[C@@H]2[C@@H](C(=O)NC(CC3CC3)C(=O)C(N)=O)N(C(=O)[C@@H](NC(=O)NC3(Cc4cccnc4)CCCCC3)C3CCCCC3)C[C@@H]21 (some centres unmarked) [compound 4927] | > 7.12
CC1CCCC(Cc2ccccc2)(NC(=O)N[C@H](C(=O)N2C[C@H]3[C@@H]([C@H]2C(=O)NC(CC2CC2)C(=O)C(N)=O)C3(C)C)C(C)(C)C)C1 (some centres unmarked) [compound 4960] | > 7.12

same assay, conditions: Table 8; read-out: Ki*

Compound | pKi
CC(C)(C)[C@H](NC(=O)NC1(C(=O)O)CCCCC1)C(=O)N1C[C@H]2[C@@H]([C@H]1C(=O)NC(CC1CC1)C(=O)C(N)=O)C2(C)C (some centres unmarked) | 8.30

pKi: −log10 of the molar value.
